# Measured values taken from the supplement of paper PMC8183993.
# Where a name gives a salt, the structure may show the parent alone. ± gives the standard deviation of the averaged measurements. The full ranking holds about 3,100 compounds; the median of “mean cytoplasmic OPP incorporation (global translation) relative to DMSO” is about 100, and the lowest 2% start at about 56. Some of the results follow.
# Test system: U2OS
# Assay: mean cytoplasmic OPP incorporation (global translation) relative to DMSO (% of DMSO); higher = more protein synthesis
# Details: 10 µM; 24 h
# Protocol: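 Primary image-based screen in U2OS cells: compounds at 10 uM for 24 h, then a 1 h o-propargyl-puromycin (OPP) pulse, click labelling, and high-throughput microscopy. Mean cytoplasmic OPP intensity and nuclei count were normalised to DMSO wells within each plate (DMSO = 100) and averaged over triplicate plates.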
row,Structure (SMILES),mean cytoplasmic OPP incorporation
1,CN(C)CCN(C)C(=O)c1ccc(NC(=O)Nc2ccc(-c3nc(N4CCOCC4)c4ccn(CC(F)(F)F)c4n3)cc2)cc1,74.4
2,O=C(Nc1ccccc1-c1cn2c(CN3CCNCC3)csc2n1)c1cnc2ccccc2n1,48.8
3,COc1ccc2c(c1OC)C(=O)O[C@@H]2[C@H]1c2c(cc3c(c2OC)OCO3)CCN1C [Noscapine hydrochloride],96.7
4,CC(=O)NCCCS(=O)(=O)O [Acamprosate calcium],101
5,O=C(O)c1cc(/N=N/c2ccc(O)c(C(=O)O)c2)ccc1O [Olsalazine Sodium],105
6,C/C=C1\C(=O)C[C@H]2[C@@H]3CCC4=CC(=O)CC[C@]4(C)[C@H]3CC[C@]12C [Z-Guggulsterone],105
7,C/C=C1\C(=O)C[C@H]2[C@@H]3CCC4=CC(=O)CC[C@]4(C)[C@H]3CC[C@]12C [Guggulsterone],89.7
8,CC(C)(C)NCC(O)COc1cccc2c1CCC(=O)N2 (stereo not given) [Carteolol hydrochloride],101
9,N#Cc1cc2c(OCC(O)CN3CCN(C(c4ccccc4)c4ccccc4)CC3)cccc2[nH]1 (stereo not given),107
10,C=C1c2c(Cl)ccc(O)c2C(=O)C2=C(O)[C@]3(O)C(=O)C(C(N)=O)=C(O)[C@@H](N(C)C)[C@@H]3[C@@H](O)[C@H]12.O=C(O)c1cc(S(=O)(=O)O)ccc1O [Meclocycline sulfosalicylate],98.9
11,CNC(=O)c1cc(Oc2ccc(NC(=O)Nc3ccc(Cl)c(C(F)(F)F)c3)c(F)c2)ccn1 [Regorafenib (BAY 73-4506)],96.4
12,O=C(NCc1ccccc1)c1csc(Nc2ccncn2)n1 [Thiazovivin],96.2 ± 1.8
13,CC(C)NCC(O)COc1ccccc1-n1cccc1 (stereo not given) [Isamoltane hemifumarate],94.6
14,CNC[C@H](O)c1ccc(O)c(O)c1 [Epinephrine bitartrate (Adrenalinium)],102
15,CN1CCN(CCCN2c3ccccc3Sc3ccc(C(F)(F)F)cc32)CC1 [Trifluoperazine dihydrochloride],112
16,CNCc1ccc(-c2cc(-c3nc(-c4ccc(S(=O)(=O)C(C)C)cc4)cnc3N)on2)cc1,99.9
17,CN(C)CCN1C(=O)c2ccccc2N(C)c2ccccc21 [Dibenzepine hydrochloride],104
18,COc1ccc(OC)c(C(O)CNC(=O)CN)c1 (stereo not given) [Midodrine hydrochloride],48.8
19,CC(S)C(=O)NCC(=O)O (stereo not given) [Tiopronin (Thiola)],103
20,O=C(CCc1ccc(O)cc1)c1c(O)cc(O)cc1O [Phloretin (Dihydronaringenin)],99.2
